These results are taken from PMC4336329 (PLoS ONE, 2015).

Hit rate of the full screen: of about 310,000 compounds, about 14,000 (4.5%) showed an effect of 50% or more. The effect is printed as a negative number. This is one part of the list.
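Note: peak tail current of the secondary pulse compared with the same well before compound.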

In this assay the target is human ether-à-go-go-related gene (hERG) potassium channel (human, UniProt Q12809). The experiment in a line: primary screen, population patch clamp on CHO cells stably expressing hERG.
Chain of human ether-à-go-go-related gene (hERG) potassium channel (Q12809 whole entry, looked up): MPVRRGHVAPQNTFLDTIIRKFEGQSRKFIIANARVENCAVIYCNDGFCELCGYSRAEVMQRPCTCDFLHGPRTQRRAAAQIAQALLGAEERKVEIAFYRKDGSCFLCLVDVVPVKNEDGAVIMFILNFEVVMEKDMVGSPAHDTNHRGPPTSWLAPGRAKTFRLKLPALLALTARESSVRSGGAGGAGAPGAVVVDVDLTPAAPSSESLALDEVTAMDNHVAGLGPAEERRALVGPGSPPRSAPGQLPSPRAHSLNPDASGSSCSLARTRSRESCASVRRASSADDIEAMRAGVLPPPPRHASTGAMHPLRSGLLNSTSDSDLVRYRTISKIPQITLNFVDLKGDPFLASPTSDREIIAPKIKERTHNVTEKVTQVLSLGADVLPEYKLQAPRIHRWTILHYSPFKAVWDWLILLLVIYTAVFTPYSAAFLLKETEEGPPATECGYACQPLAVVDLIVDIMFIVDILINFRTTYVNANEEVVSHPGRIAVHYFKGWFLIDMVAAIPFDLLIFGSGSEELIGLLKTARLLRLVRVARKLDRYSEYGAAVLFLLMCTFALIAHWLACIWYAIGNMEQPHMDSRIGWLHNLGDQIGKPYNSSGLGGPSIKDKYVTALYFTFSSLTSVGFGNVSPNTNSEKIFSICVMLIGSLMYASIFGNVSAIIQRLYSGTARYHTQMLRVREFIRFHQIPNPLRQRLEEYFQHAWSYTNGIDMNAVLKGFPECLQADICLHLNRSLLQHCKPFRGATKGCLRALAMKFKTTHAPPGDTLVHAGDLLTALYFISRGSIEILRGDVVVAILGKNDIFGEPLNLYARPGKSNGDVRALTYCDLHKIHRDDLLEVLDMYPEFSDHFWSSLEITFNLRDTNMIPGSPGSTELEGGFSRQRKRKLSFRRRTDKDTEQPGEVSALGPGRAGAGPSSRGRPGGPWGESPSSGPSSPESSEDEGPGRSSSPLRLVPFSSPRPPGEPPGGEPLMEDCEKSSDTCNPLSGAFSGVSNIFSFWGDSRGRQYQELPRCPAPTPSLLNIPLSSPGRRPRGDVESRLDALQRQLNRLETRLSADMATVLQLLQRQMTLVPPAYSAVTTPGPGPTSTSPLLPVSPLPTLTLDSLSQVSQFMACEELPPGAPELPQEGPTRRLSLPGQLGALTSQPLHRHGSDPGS
On to `CN(CC(=O)NCc1cccnc1)S(=O)(=O)c1ccc2c(c1)c(=O)n(C)c(=O)n2C`, for which the “hERG current change (%, negative = inhibition) at 10uM” value is reported as 31.5%.
With `O=C(Nc1cccc2cccnc12)c1ccc(Cl)cc1`, the “hERG current change (%, negative = inhibition) at 10uM” value is recorded as 6.29%.
The result for `CCC/C(O)=C1\C(=O)CC(c2ccccc2)CC1=NCCc1c(C)[nH]c2ccccc12` (centres unmarked) reads -39.3%; that for `CCCCC(NC(C)=O)c1nc2ccccc2[nH]1` (centres unmarked), 23.1%.
The result for `N#Cc1ccc(COC(=O)c2cccnc2Cl)cc1` reads -46.1%; that for `Cc1cc(C(=O)Nn2cnnc2)cs1`, 10.2%; that for `COC(=NC(C)C)NC(C)C`, 22.2%.
The result for `Cc1cccc(C(=O)N2CCN(C(=O)c3cccc(C)c3)C(C)C2)c1` (centres unmarked) reads 6.45%.
As for `Cn1c(Cl)c(/C=N/OC(=O)C2CC2)c2ccccc21`, the “hERG current change (%, negative = inhibition) at 10uM” value is given as 11.8%.
The result for `COC(=O)CN(c1c(C)cccc1C)S(C)(=O)=O` reads 9.13%.
The result for `COC(=O)c1nccc2c1[nH]c1ccccc12` reads 9.72%; that for `CC(C)(C#N)Nc1ccccc1`, 7.22%.
The result for `O=C(NCC1CCCC(CNC(=O)Nc2ccc(Cl)cn2)C1)Nc1ccc(Cl)cn1` (centres unmarked) reads 4.19%; that for `COc1ccc2c(c1)CCc1c(C(=O)Nc3cc(C)n(Cc4ccc(Cl)cc4)n3)noc1-2`, -30.5%.
Turning to `O=C1CCCC2=C1Sc1ccc(Cl)cc1N2`, the “hERG current change (%, negative = inhibition) at 10uM” value was found to be 11.6%.
With `O=C(COC(=O)COc1ccc(Cl)cc1Br)NC1CCCCCC1`, the “hERG current change (%, negative = inhibition) at 10uM” value is listed as 5.9%.
The result for `CC1(C)C2CCC1(C)C1(C2)NC(=O)c2ccccc2O1` (centres unmarked) reads 4.25%.
The result for `Cc1cc(Cl)c(OCCCNCc2ccccc2)c(Br)c1.O=C(O)C(=O)O` reads -51.8%; that for `CCOC(=O)C1C(=O)CC(C)(O)C(C(=O)OCC)C1c1ccc(OC)cc1` (centres unmarked), -4.15%; that for `COc1cc(NC(=O)COC(=O)/C=C/c2ccc(Cl)cc2Cl)cc(OC)c1`, 5.23%.
With `O=C(COC(=O)/C=C/c1ccc(C(F)(F)F)cc1)NCC1CCCO1` (centres unmarked), the “hERG current change (%, negative = inhibition) at 10uM” value was found to be 10.1%.
As to `N#Cc1ccc(C(=O)Nc2nnc(-c3ccccn3)o2)cc1`, the “hERG current change (%, negative = inhibition) at 10uM” value is on record as -4.32%.
The result for `CCOC(=O)c1oc2ccccc2c1CN1CCN(C)CC1.Cl` reads -61.5%; that for `Cc1ccc(-n2c(SCC(=O)Nc3ccc4cn[nH]c4c3)nnc2-c2ccco2)cc1`, -62.4%.
Take `CCOC(=O)N1CCN(C(=O)c2oc3ccc(S(=O)(=O)N4CCCCCC4)cc3c2C)CC1`: the “hERG current change (%, negative = inhibition) at 10uM” value is recorded as -29.8%.
The result for `Cc1cc(=O)oc2cc(OCC(=O)OCC(=O)N3CCc4ccccc43)ccc12` reads -11.1%.
